Consider one compound from publication PMC5006944 (Cell, 2016).

For the test, the system named is AKT phosphorylation in MIAPaCa-2, HCT-116, and MDA-MB-231 cells. The test can be described thus: AKT phosphorylation in EGF-stimulated mutant KRAS cells. The settings on record: EGF-stimulated MIAPaCa-2, HCT-116, MDA-MB-231.

For the compound `COc1cc(OC)c(/C=C/S(=O)(=O)Cc2ccc(OC)c(NCC(=O)O)c2)c(OC)c1` [RGS, rigosertib], the AKT phosphorylation entry is “reduction in AKT phosphorylation”.
